# According to a collection of fitness landscapes (doi:10.1038/s41467-024-54723-y):
# The full ranking holds about 18,000 sequences; the median of “TetR repression strength (sort-seq, GFP reporter)” is about 0.23, and the highest 2% start at about 0.68. Some of the results follow.
# Molecular target: TetR (class B, Tn10) (UniProt P04483)
# Test: TetR repression strength (sort-seq, GFP reporter) (relative to tetO2 = 1); higher = stronger repression
# Details: E. coli
# Procedure, shortened: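 In LB with 50 µg/mL chloramphenicol, E. coli SIG10-MAX holding a low-copy library with eight randomized operator positions between a constitutive promoter and sfGFP, plus constitutive TetR, grew for 5 h at 37 °C. FACS then sorted 10^6 cells into 13 fluorescence bins for Illumina sequencing of each bin. Repression strength equals the top bin index plus one less the read-weighted mean bin, normalized to the unaltered operator. Values from three independent transformations were averaged when reads were ≥30 in every replicate and the CV was ≤0.5.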
# UniProt P04483, sequence (P04483 whole entry): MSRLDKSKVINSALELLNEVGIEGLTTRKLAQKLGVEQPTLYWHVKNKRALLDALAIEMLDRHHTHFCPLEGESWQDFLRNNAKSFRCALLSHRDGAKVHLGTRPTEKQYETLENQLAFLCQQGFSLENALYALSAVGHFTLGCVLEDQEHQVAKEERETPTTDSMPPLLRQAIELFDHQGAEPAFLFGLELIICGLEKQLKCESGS
row,Sequence,TetR repression strength
1,TCCCTTCGAGTTTCCGAGA,0.257
2,TCCCGGAGAGTATGAGAGA,0.204
3,TCCCACTAAGTGGTCGAGA,0.0268
4,TCCCGAAAAGTCAGCGAGA,0.0132
5,TCCCTCGCAGTCAGCGAGA,0.355
6,TCCCCTAAAGTCGAGGAGA,0.11
7,TCCCCGCCAGTGGACGAGA,0.191
8,TCCCCCCAAGTCGGCGAGA,0.00669
9,TCCCATTTAGTCGAAGAGA,0.104
10,TCCCGAATAGTGCAGGAGA,0.25
11,TCCCGCTGAGTAATTGAGA,0.546
12,TCCCGCCAAGTTGTTGAGA,0.0898
13,TCCCGGGCAGTGTGTGAGA,0.25
14,TCCCAAATAGTTAGTGAGA,0.625
15,TCCCTTAAAGTTACGGAGA,0.125
16,TCCCTTTAAGTTGGTGAGA,0.335
17,TCCCCCGTAGTAAGCGAGA,0.26
18,TCCCAATGAGTTGGCGAGA,0.124
19,TCCCCGACAGTTACGGAGA,0.188
20,TCCCCGCGAGTTAGAGAGA,0.399
21,TCCCCTTAAGTTGTAGAGA,0.424
22,TCCCGGTTAGTACCCGAGA,0.0883
23,TCCCGTGTAGTTAGTGAGA,0.308
24,TCCCTGTTAGTGAAGGAGA,0.271
25,TCCCGTTCAGTGTTGGAGA,0.222
26,TCCCGACGAGTGGTTGAGA,0.162

row,Sequence,TetR repression strength
1,TCCCTGTGAGTAGACGAGA,0.167
2,TCCCTATGAGTGACCGAGA,0.604
3,TCCCGCAAAGTAAGGGAGA,0.198
4,TCCCGTTGAGTATCGGAGA,0.133
5,TCCCGGTGAGTTTGCGAGA,0.34
6,TCCCCGTAAGTTTGGGAGA,0.0954
7,TCCCTATGAGTGGACGAGA,0.404
8,TCCCTTTTAGTCTATGAGA,0.858
9,TCCCTGTGAGTCGCCGAGA,0.133
10,TCCCTATTAGTCGTTGAGA,0.26
11,TCCCAGGTAGTGTATGAGA,0.204
12,TCCCAGATAGTCTGCGAGA,0.303
13,TCCCCCGAAGTAGTGGAGA,0.308
14,TCCCAAGGAGTGCGGGAGA,0.119
15,TCCCATCCAGTATAAGAGA,0.298
16,TCCCGGAAAGTGACCGAGA,0.203
17,TCCCTAGTAGTGTCCGAGA,0.266
18,TCCCTAGAAGTGTTAGAGA,0.415
19,TCCCACGGAGTGTCGGAGA,0.202
20,TCCCGGGCAGTGCGTGAGA,0.185
21,TCCCGCTGAGTTTTCGAGA,0.25
22,TCCCATCCAGTTCTGGAGA,0.484
23,TCCCGAGTAGTTGCCGAGA,0.132
24,TCCCTTCGAGTGGGGGAGA,0.2
25,TCCCCGAAAGTCTCAGAGA,0.207
26,TCCCGCACAGTGTTCGAGA,0.143

row,Sequence,TetR repression strength
1,TCCCTATAAGTGGTCGAGA,0.628
2,TCCCATTAAGTTGGCGAGA,0.192
3,TCCCGGGAAGTGGAGGAGA,0.065
4,TCCCGTAGAGTGGAGGAGA,0.172
5,TCCCTGGAAGTGACGGAGA,0.422
6,TCCCGAGTAGTGGGGGAGA,0.254
7,TCCCAATCAGTAGCCGAGA,0.308
8,TCCCAAGTAGTTTCTGAGA,0.359
9,TCCCCCGTAGTGATAGAGA,0.214
10,TCCCTTGCAGTCATGGAGA,0.115
11,TCCCTGTCAGTTCGGGAGA,0.244
12,TCCCGTTAAGTCTGGGAGA,0.125
13,TCCCTAGCAGTCTGGGAGA,0.426
14,TCCCCCTGAGTCAGGGAGA,0.29
15,TCCCGGTCAGTAGTCGAGA,0.665
16,TCCCCACCAGTACCCGAGA,0.403
17,TCCCCCGGAGTCCTAGAGA,0.301
18,TCCCGCGTAGTGAGAGAGA,0.526
19,TCCCGTAGAGTATCGGAGA,0.38
20,TCCCAAGCAGTTAGGGAGA,0.339
21,TCCCACAGAGTTGTTGAGA,0.207
22,TCCCAAGAAGTAGACGAGA,0.227
23,TCCCCGTTAGTGGGGGAGA,0.25
24,TCCCTTTGAGTGTGCGAGA,0.218
25,TCCCTCAGAGTGATAGAGA,0.342
26,TCCCGGAGAGTACTGGAGA,0.171

row,Sequence,TetR repression strength
1,TCCCAAGAAGTGCGCGAGA,0.258
2,TCCCTCGTAGTTGATGAGA,0.253
3,TCCCAGTTAGTGAGAGAGA,0.315
4,TCCCAATCAGTGGGGGAGA,0.283
5,TCCCTGGAAGTTGCTGAGA,0.271
6,TCCCCGAGAGTATATGAGA,0.207
7,TCCCATGCAGTGCGCGAGA,0.202
8,TCCCGTCGAGTGTTCGAGA,0.218
9,TCCCGTCCAGTGATTGAGA,0.614
10,TCCCACGGAGTTGGGGAGA,0.232
11,TCCCAAAGAGTGCAGGAGA,0.187
12,TCCCCTGGAGTGCTTGAGA,0.291
13,TCCCGGTAAGTGATCGAGA,0.166
14,TCCCGATCAGTGAACGAGA,0.628
15,TCCCGAATAGTGTATGAGA,0.441
16,TCCCAGCTAGTGACGGAGA,0.226
17,TCCCTGCCAGTGGTGGAGA,0.381
18,TCCCGCAAAGTGGGAGAGA,0.16
19,TCCCATGAAGTGGTCGAGA,0.4
20,TCCCAATTAGTGTAGGAGA,0.21
21,TCCCATAGAGTCGTGGAGA,0.0563
22,TCCCCGTGAGTTGAGGAGA,0.335
23,TCCCGTTTAGTCGACGAGA,0.158
24,TCCCACCGAGTGGCTGAGA,0.516
